Results reported in US20260166169A1, “ANTIBODY-DRUG CONJUGATE, PREPARATION METHOD AND USE THEREOF” (priority 2023, published 2026).

Key:
[1] = test system: A375 cell; test: Endocytosis of 02-1-LP1 by tumor cells overexpressing MUC18; assay type: cell-based; details: 50 μg/mL, 37° C., flow cytometry at 0-8 hours, FIG. 17
Method: (§1) Experimental Example 1: Endocytosis of 02-1-LP1 by Tumor Cells of Overexpressing MUC18
(§2) 50 μg/mL 02-1-LP1 was combined with A375 cell (purchased from Shanghai Institute for Biological Sciences, Chinese Academy of Sciences), HMVII cell (purchased from Center for Type Culture Collection, Biovector NTCC), SK-MEL-2 cell (purchased from Shanghai Xunqing Biotechnology Co., Ltd.), and GAK cell (purchased from Center for Type Culture Collection, Biovector NTCC), respectively. After washing off excess ADC, cells were cultured in an incubator of 37° C. At 0, 0.5, 1, 2, 4, and 8 hours, a median fluorescence intensity (MFI) was measured by flow cytometry.

[2] = test system: HMVII cell; test: as above; assay type: cell-based; details: 50 μg/mL, 37° C., flow cytometry at 0-8 hours, FIG. 17
Method: as §1, §2

[3] = test system: SK-MEL-2 cell; test: as above; assay type: cell-based; details: 50 μg/mL, 37° C., flow cytometry at 0-8 hours, FIG. 17
Method: as §1, §2

[4] = test system: GAK cell; test: as above; assay type: cell-based; details: 50 μg/mL, 37° C., flow cytometry at 0-8 hours, FIG. 17
Method: as §1, §2

[5] = test system: SCC-9 human head and neck squamous cell carcinoma CDX model; test: In vivo inhibitory effect on SCC-9 CDX model and body weight change; parameters: species or system Balb/c nude mice; details: 2.5, 5, 10 mpk intravenous
Excerpt: Experimental Example 7: In Vivo Inhibitory Effect on SCC-9 Human Head and Neck Squamous Cell Carcinoma CDX Model and Effect Thereof on Body Weight Change of Mice
6-week-old Balb/c nude mice were purchased from Shanghai BK/KY Biotechnology Co., Ltd. Each mouse was subcutaneously inoculated with eight million SCC-9 cells (purchased from ATCC) to obtain CDX model. […] DPBS (Dulbecco's Phosphate-Buffered Saline) was negative control. The administration was once a week for two times (QW×2). After administration, a tumor volume was measured twice a week with a vernier caliper, and the tumor volume was calculated according to the following formula: TV=(length×width)^2/2.

[6] = test system: LD1-0016-390730 human esophagus adenocarcinoma PDX model; test: In vivo inhibitory effect on LD1-0016-390730 PDX model and body weight change; parameters: species or system Nu/Nu mice
Excerpt: Experimental Example 10: In Vivo Inhibitory Effect on LD1-0016-390730 Human Esophagus Adenocarcinoma PDX Model and Effect Thereof on Body Weight Change of Mice
(§3) LD1-0016-390730 (LideBiotech CO., LTD) is a human esophagus adenocarcinoma patient derived xenograft model which expresses human MUC18 (H-Score=115). 6-8 weeks Nu/Nu mice were purchased from Beijing Vital River Laboratory Animal Technology Co., Ltd. Tumors of LD1-0016-390730 were sliced into about 3 mm×3 mm×3 mm fragments and implanted subcutaneously into the flank of mice. On day 45 (mean tumor size ˜191 mm^3) following implanting, 02-1-LP1 prepared in Example 5 was intravenously injected. The administration dose was 10 mpk, once a week for two times (QW×2). After administration, a tumor volume was measured twice a week with a vernier caliper, and the tumor volume was calculated according to the following formula: TV=(length×width)^2/2.

[7] = test system: LD1-0060-200770 human cholangiocarcinoma PDX model; test: In vivo inhibitory effect on LD1-0060-200770 PDX model and body weight change; parameters: species or system Nu/Nu mice
Excerpt: Experimental Example 13: In Vivo Inhibitory Effect on LD1-0060-200770 Human Cholangiocarcinoma PDX Model and Effect Thereof on Body Weight Change of Mice
as §3, with “LD1-0060-200770” for “LD1-0016-390730”, “cholangiocarcinoma” for “esophagus adenocarcinoma”, “(H-Score=15).” for “(H-Score=115).”, “42” for “45”, “˜155” for “˜191”

[8] = Measurement of aggregates in antibody-drug conjugate by size exclusion chromatography (operation H); assay type: physicochemical; details: detection 280 nm
[9] = Toxicological experiments of repeated administration to cynomolgus monkeys; assay type: in vivo; details: cynomolgus monkey
Method: Experimental Example 3: Toxicological Experiments of 02-1-LP1 and 02-1-Vc-MMAE on Cynomolgus Monkeys
Experiment of repeated administration of 02-1-LP1 (prepared in Example 5) to cynomolgus monkeys: 6 cynomolgus monkeys (purchased from Guangxi Frontier Biotechnology Co., Ltd.) were randomly divided into 3 groups, and there were one male and one female in each group. Vehicle, 10 mg/kg of 02-1-LP1, and 30 mg/kg of 02-1-LP1 were infused intravenously on the 1st day, the 22nd day and the 43rd day, respectively. […] On the 50th day, the animals were euthanized and sampled for pathological analysis. […] HNSTD (maximum dose without severe toxicity) was 30 mg/kg.
Experiment of repeated administration of 02-1-vc-MMAE (prepared in Comparative Example 1) to cynomolgus monkeys: 6 cynomolgus monkeys were randomly divided into 3 groups, and there were one male and one female in each group. 3 mg/kg 02-1-vc-MMAE, 6 mg/kg 02-1-vc-MMAE, and 10 mg/kg 02-1-vc-MMAE were infused intravenously on the 1st day, the 22nd day, respectively. […] On the 43rd day, the animals were euthanized and sampled for pathological analysis. […] HNSTD (maximum dose without severe toxicity) was 6 mg/kg.

[10] = repeated intravenous administration

B1: 02-1-LP1 (conjugate)
heavy: QVQLVQSGAEVKKPGASVKVSCKASGYTFTDYNMDWVRQSPGQSLEWMGDINPNNGATLYNQNFRGRVTITRDTSASTAYMELSSLRSEDTAVYYCTRSGYDDYYALDYWGQGTTVTVSS[human IgG1 constant region left out]
light: DTQLTQSPSFLSASVGDRVTITCSASSSVGYMHWYQQKPGKAPKLLIYSTSNLASGVPSRFSGSGSGTEYTLTISSLQPEDFATYYCHQWSNYPSTFGQGTKLEIKRTVAAPSVFIFPPSDEQLKSGTASVVCLLNNFYPREAKVQWKVDNALQSGNSQESVTEQDSKDSTYSLSSTLTLSKADYEKHKVYACEVTHQGLSSPVTKSFNRGEC
For B1, which “endocytosis (median fluorescence intensity over time)” value [1] is on record?
The value was “can be endocytosed”.

And the “endocytosis (median fluorescence intensity over time)” value [2]?
Its value is “can be endocytosed”.

What about the “endocytosis (median fluorescence intensity over time)” value [3] of the same molecule?
Its value is “can be endocytosed”.

And the “endocytosis (median fluorescence intensity over time)” value [4]?
Its value is “can be endocytosed”.

What about the “tumor growth (tumor volume)” value ([5]; QW×2, FIG. 24A) of the same molecule?
Its value is “can effectively inhibit tumor growth”.

And the “body weight of mice” value ([5]; QW×2, FIG. 24B)?
The value was “little effects on the body weight of mice”.

What about the “body weight of mice” value ([6]; 10 mpk intravenous, QW×2, FIG. 27B) of the same molecule?
The value was “little effects on the body weight of mice”.

What about the “tumor growth (tumor volume)” value ([6]; MUC18 H-Score=115, 10 mpk intravenous, QW×2, FIG. 27A) of the same molecule?
Its value is “can effectively inhibit tumor growth”.

What about the “body weight of mice” value ([7]; 10 mpk intravenous, QW×2, FIG. 30B) of the same molecule?
Its value is “little effects on the body weight of mice”.

What about the “tumor growth (tumor volume)” value ([7]; MUC18 H-Score=15, 10 mpk intravenous, QW×2, FIG. 30A) of the same molecule?
The value was “can effectively inhibit tumor growth”.

What about the “content of the aggregates” value [8] of the same molecule?
Its value is 1.18%.

And the “death of the animals” value ([9]; all doses (10 and 30 mg/kg), days 1, 22, 43)?
Its value is “did not cause death of the animals”.

And the “safety (comparison of the two ADCs)” value ([9]; repeated administration)?
Its value is “significantly better than that of 02-1-vc-MMAE”.

And the “HNSTD (maximum dose without severe toxicity)” value [9, 10]?
Its value is 30 mg/kg.

What about the Lethal dose [9, 10] of the same molecule?
Its Lethal dose is over 30 mg/kg.

And the “Target organs related to the test substance” value [9, 10]?
The value was “reticulocytes, digestive tract, kidney, and spleen”.

And the Blood biochemistry ([9]; ≤30 mg/kg)?
The Blood biochemistry was ≤30 mg/kg: Normal.
